According to the supplement of paper PMC8728848:
The list shows a part of the results.

Columns and labels:
Test in all cases: glycan array binding signal (z-score within array); higher = stronger binding
Conditions in all cases: glycan notation: IUPAC condensed, linker removed
[1] = molecular target: GlcNAc(b1-3)Gal(b1-3)GalNAc
Procedure, shortened: (§1)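 The binding signal is a Z-score computed within each array and averaged over linkers. Arrays of the same protein sequence at different concentrations or buffers were also averaged together. Data originate from 3228 arrays in the Consortium for Functional Glycomics database, kept only where the protein sequence was available.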

GlcNAc(b1-3)Gal(b1-4)Glc = molecular target: GlcNAc(b1-3)Gal(b1-4)Glc
Procedure, shortened: as §1

[2] = molecular target: GlcNAc(b1-3)Gal(b1-4)GlcNAc
Procedure, shortened: as §1

[3] = molecular target: GlcNAc(b1-3)Gal(b1-4)GlcNAc(b1-2)Man(a1-3)[GlcNAc(b1-3)Gal(b1-4)GlcNAc(b1-2)Man(a1-6)]Man(b1-4)GlcNAc(b1-4)GlcNAc
Procedure, shortened: as §1

[4] = molecular target: GlcNAc(b1-3)Gal(b1-4)GlcNAc(b1-2)Man(a1-3)[GlcNAc(b1-3)Gal(b1-4)GlcNAc(b1-2)Man(a1-6)]Man(b1-4)GlcNAc(b1-4)[Fuc(a1-6)]GlcNAc
Procedure, shortened: as §1

[5] = molecular target: GlcNAc(b1-3)Gal(b1-4)GlcNAc(b1-2)[GlcNAc(b1-3)Gal(b1-4)GlcNAc(b1-6)]Man(a1-6)[GlcNAc(b1-3)Gal(b1-4)GlcNAc(b1-2)Man(a1-3)]Man(b1-4)GlcNAc(b1-4)GlcNAc
Procedure, shortened: as §1

[6] = molecular target: GlcNAc(b1-3)Gal(b1-4)GlcNAc(b1-3)Gal(b1-4)GlcNAc
Procedure, shortened: as §1

[7] = molecular target: GlcNAc(b1-3)Gal(b1-4)GlcNAc(b1-3)Gal(b1-4)GlcNAc(b1-2)Man(a1-3)[GlcNAc(b1-3)Gal(b1-4)GlcNAc(b1-3)Gal(b1-4)GlcNAc(b1-2)Man(a1-6)]Man(b1-4)GlcNAc(b1-4)GlcNAc
Procedure, shortened: as §1

[8] = molecular target: GlcNAc(b1-3)Gal(b1-4)GlcNAc(b1-3)Gal(b1-4)GlcNAc(b1-2)Man(a1-3)[GlcNAc(b1-3)Gal(b1-4)GlcNAc(b1-3)Gal(b1-4)GlcNAc(b1-2)Man(a1-6)]Man(b1-4)GlcNAc(b1-4)[Fuc(a1-6)]GlcNAc
Procedure, shortened: as §1

[9] = molecular target: GlcNAc(b1-3)Gal(b1-4)GlcNAc(b1-3)Gal(b1-4)GlcNAc(b1-2)[GlcNAc(b1-3)Gal(b1-4)GlcNAc(b1-3)Gal(b1-4)GlcNAc(b1-6)]Man(a1-6)[GlcNAc(b1-3)Gal(b1-4)GlcNAc(b1-3)Gal(b1-4)GlcNAc(b1-2)Man(a1-3)]Man(b1-4)GlcNAc(b1-4)[Fuc(a1-6)]GlcNAc
Procedure, shortened: as §1

[10] = molecular target: GlcNAc(b1-3)Gal(b1-4)GlcNAc(b1-3)Gal(b1-4)GlcNAc(b1-3)Gal(b1-4)GlcNAc(b1-2)Man(a1-3)[GlcNAc(b1-3)Gal(b1-4)GlcNAc(b1-3)Gal(b1-4)GlcNAc(b1-3)Gal(b1-4)GlcNAc(b1-2)Man(a1-6)]Man(b1-4)GlcNAc(b1-4)GlcNAc
Procedure, shortened: as §1

[11] = molecular target: GlcNAc(b1-3)Gal(b1-4)GlcNAc(b1-3)Gal(b1-4)GlcNAc(b1-3)Gal(b1-4)GlcNAc(b1-2)Man(a1-3)[GlcNAc(b1-3)Gal(b1-4)GlcNAc(b1-3)Gal(b1-4)GlcNAc(b1-3)Gal(b1-4)GlcNAc(b1-2)Man(a1-6)]Man(b1-4)GlcNAc(b1-4)[Fuc(a1-6)]GlcNAc
Procedure, shortened: as §1

[12] = molecular target: GlcNAc(b1-3)Gal(b1-4)GlcNAc(b1-3)Gal(b1-4)GlcNAc(b1-3)Gal(b1-4)GlcNAc(b1-2)[GlcNAc(b1-3)Gal(b1-4)GlcNAc(b1-3)Gal(b1-4)GlcNAc(b1-3)Gal(b1-4)GlcNAc(b1-6)]Man(a1-6)[GlcNAc(b1-3)Gal(b1-4)GlcNAc(b1-3)Gal(b1-4)GlcNAc(b1-3)Gal(b1-4)GlcNAc(b1-2)Man(a1-3)]Man(b1-4)GlcNAc(b1-4)[Fuc(a1-6)]GlcNAc
Procedure, shortened: as §1

[13] = molecular target: GlcNAc(b1-3)Gal(b1-4)GlcNAc(b1-3)Gal(b1-4)GlcNAc(b1-3)Gal(b1-4)GlcNAc(b1-3)Gal(b1-4)GlcNAc(b1-2)Man(a1-3)[GlcNAc(b1-3)Gal(b1-4)GlcNAc(b1-3)Gal(b1-4)GlcNAc(b1-3)Gal(b1-4)GlcNAc(b1-3)Gal(b1-4)GlcNAc(b1-2)Man(a1-6)]Man(b1-4)GlcNAc(b1-4)GlcNAc
Procedure, shortened: as §1

[14] = molecular target: GlcNAc(b1-3)Gal(b1-4)GlcNAc(b1-3)Gal(b1-4)GlcNAc(b1-3)Gal(b1-4)GlcNAc(b1-3)Gal(b1-4)GlcNAc(b1-2)Man(a1-3)[GlcNAc(b1-3)Gal(b1-4)GlcNAc(b1-3)Gal(b1-4)GlcNAc(b1-3)Gal(b1-4)GlcNAc(b1-3)Gal(b1-4)GlcNAc(b1-2)Man(a1-6)]Man(b1-4)GlcNAc(b1-4)[Fuc(a1-6)]GlcNAc
Procedure, shortened: as §1

[15] = molecular target: GlcNAc(b1-3)Gal(b1-4)GlcNAc(b1-3)Gal(b1-4)GlcNAc(b1-3)Gal(b1-4)GlcNAc(b1-3)Gal(b1-4)GlcNAc(b1-2)[GlcNAc(b1-3)Gal(b1-4)GlcNAc(b1-3)Gal(b1-4)GlcNAc(b1-3)Gal(b1-4)GlcNAc(b1-3)Gal(b1-4)GlcNAc(b1-6)]Man(a1-6)[GlcNAc(b1-3)Gal(b1-4)GlcNAc(b1-3)Gal(b1-4)GlcNAc(b1-3)Gal(b1-4)GlcNAc(b1-3)Gal(b1-4)GlcNAc(b1-2)Man(a1-3)]Man(b1-4)GlcNAc(b1-4)[Fuc(a1-6)]GlcNAc
Procedure, shortened: as §1

[16] = molecular target: GlcNAc(b1-3)Gal(b1-4)GlcNAc(b1-3)Gal(b1-4)GlcNAc(b1-3)GalNAc
Procedure, shortened: as §1

[17] = molecular target: GlcNAc(b1-3)Gal(b1-4)GlcNAc(b1-3)GalNAc
Procedure, shortened: as §1

[18] = molecular target: GlcNAc(b1-3)Gal(b1-4)GlcNAc(b1-3)[GlcNAc(b1-3)Gal(b1-4)GlcNAc(b1-3)]GalNAc
Procedure, shortened: as §1

[19] = molecular target: GlcNAc(b1-3)Gal(b1-4)GlcNAc(b1-6)[Gal(b1-3)]GalNAc
Procedure, shortened: as §1

[20] = molecular target: GlcNAc(b1-3)Gal(b1-4)GlcNAc(b1-6)[GlcNAc(b1-3)Gal(b1-3)]GalNAc
Procedure, shortened: as §1

[21] = molecular target: GlcNAc(b1-3)Gal(b1-4)GlcNAc(b1-6)[GlcNAc(b1-3)]Gal(b1-4)GlcNAc
Procedure, shortened: as §1

B1: HBHA-Rv (Mycobacterium tuberculosum), P0A5P6 (protein)
chain: MAENSNIDDIKAPLLAALGAADLALATVNELITNLRERAEETRTDTRSRVEESRARLTKLQEDLPEQLTELREKFTAEELRKAAEGYLEAATSRYNELVERGEAALERLRSQQSFEEVSARAEGYVDQAVELTQEALGTVASQTRAVGERAAKLVGIELPKKAAPAKKAAPAKKAAPAKKAAAKKAPAKKAAAKKVTQK
[1]
  glycan array binding signal (z-score): -0.348
GlcNAc(b1-3)Gal(b1-4)Glc
  glycan array binding signal (z-score): 0.832
[2]
  glycan array binding signal (z-score): -0.063
[3]
  glycan array binding signal (z-score): -0.423
[4]
  glycan array binding signal (z-score): -0.332
[5]
  glycan array binding signal (z-score): -0.106
[6]
  glycan array binding signal (z-score): -0.34
[7]
  glycan array binding signal (z-score): -0.01
[8]
  glycan array binding signal (z-score): -0.411
[9]
  glycan array binding signal (z-score): -0.372
[10]
  glycan array binding signal (z-score): -0.412
[11]
  glycan array binding signal (z-score): -0.455
[12]
  glycan array binding signal (z-score): -0.347
[13]
  glycan array binding signal (z-score): -0.458
[14]
  glycan array binding signal (z-score): -0.46
[15]
  glycan array binding signal (z-score): -0.352
[16]
  glycan array binding signal (z-score): -0.352
[17]
  glycan array binding signal (z-score): -0.445
[18]
  glycan array binding signal (z-score): -0.425
[19]
  glycan array binding signal (z-score): -0.445
[20]
  glycan array binding signal (z-score): -0.455
[21]
  glycan array binding signal (z-score): -0.384
